Among all 350,000 compounds or so, about 9,900 (2.8%) were called active. The shares of active, inactive and inconclusive entries below differ from those in the screen. The call rests on the fitted dose curve; in most records, active means well fitted activation curve with a large enough effect; inconclusive means small, poorly fitted or top-dose-only effect; inactive means no such curve, though single readings can be large or run the other way. Potencies of inconclusive entries are left out as doubtful fits.
Experiment: A quantitative high throughput screen for small molecules that induce DNA re-replication in MCF 10a normal breast cells. Further: nearly all actives have a fitted effect of over 50% in size.
Settings: MCF 10A DNA re-replication, Hoechst nuclear intensity, 48 h; series mostly up to 46.1 µM
Potency means the concentration at half of the fitted maximal effect; tags describe the fitted curve by direction and shape.

Compound | Potency
CC(=O)O/C(=C1\CC2C3CC=C4CC(OC(C)=O)CCC4(C)C3CCC2(C)C1=O)C(F)(F)F (configuration not stated) | inconclusive [activator, single point]
Cc1ccsc1C(=O)C1CCCN(CCO)C1 (configuration not stated) | inconclusive [activator, single point]
CCOC(=O)CC1c2ccccc2-n2nncc2CN1Cc1ccc(OC)cc1 (configuration not stated) | inconclusive [activator, full curve, poor fit]
COc1ccc(N/N=C/c2c(O)n(-c3ccc(C)c(C)c3)c(=O)[nH]c2=O)cc1 | inconclusive [activator, single point]
CC1CCN(CC#CCOc2ccc(Cl)cc2)CC1 | inconclusive [activator, full curve, poor fit]
CC1=NN=C(c2ccc(N)cc2)c2cc3c(cc2C1)OCO3 | inactive
C=CC[C@]1(O)CCC2C3CCC4=CCCCC4C3CCC21C (some centres not stated) | active: 18.8 µM
CC(C)CC(C)N (configuration not stated) | inconclusive [activator, full curve, poor fit]
CCC(C)OC(=O)c1c(N)n(Cc2cccs2)c2nc3ccccc3nc12 (configuration not stated) | active: 11.6 µM
CC(C)(C)c1csc(NC(=O)Nc2ccccc2)n1 | inconclusive [activator, single point]
COC(=O)C1=C(c2ccc(-c3ccccc3)c(F)c2)C[C@@H]2CC[C@H]1N2C(=O)N1CCC(C)CC1 | inconclusive [activator, partial curve, poor fit]
CC12CC[C@H]3[C@@H](CCC4(O)C[C@H](O)CCC34/C=N/NC(=O)c3ccccc3[N+](=O)[O-])C1(O)CCC2C1=CC(=O)OC1 (some centres not stated) | active: 16.4 µM
O=C1NC(=S)N(c2ccccc2F)C(=O)/C1=C\c1cccs1 | inconclusive [activator, single point]
CCCCn1c(N)c(N(CCOC)C(=O)CN2CC=C(c3ccccc3)CC2)c(=O)[nH]c1=O | inactive
Cc1ccc(C(=O)C2C(c3ccc(-c4ccccc4[N+](=O)[O-])o3)NC(=O)NC2(O)C(F)(F)F)cc1 (configuration not stated) | inconclusive [activator, single point]
CC(C(=O)c1ccc(Cl)cc1Cl)n1cncn1 (configuration not stated) | inactive
COc1cccc(OC)c1C1=NCC(=O)Nc2c1oc1ccc(Br)cc21 | inconclusive [activator, full curve, poor fit]
CC1CC(C)OP(=O)(OCCC#N)O1 (configuration not stated) | inconclusive [activator, partial curve, poor fit]
O=c1c2ccccc2[nH]c(=S)n1-c1ccc2c(c1)OCCO2 | inactive
Nc1ncnc2c1ccn2[C@@H]1O[C@H](CO)[C@@H](O)[C@H]1O | inconclusive [activator, full curve, poor fit]
COC(=O)C1=C(c2cccc(OCc3ccccc3)c2)C[C@@H]2CC[C@H]1N2C(=O)NCc1ccc(Cl)cc1 | inconclusive [activator, full curve, poor fit]
CCOc1ccc(S(=O)(=O)N(C)c2ccc(OCC(=O)N3c4ccc(C)cc4C4CN(C)CCC43)cc2)cc1 (configuration not stated) | inconclusive [activator, partial curve, poor fit]
COc1ccc(Cn2c(O)c(/C=C3/C=CC=N3)c(=O)[nH]c2=O)cc1 | inconclusive [activator, single point]

Compound | Potency
COC12C(COC(N)=O)C3=C(C(=O)C(C)=C(N)C3=O)N1CC1C2N1C (configuration not stated) | inactive
CCN1C(=O)c2ccccc2Sc2ccc(C(=O)N3CCC4(CC3)OCCO4)cc21 | inactive
CCOC(=O)CC(NC(=O)C(Cc1ccc(N(CCCl)CCCl)cc1)NC(C)=O)C(=O)OCC (configuration not stated) | inconclusive [activator, single point]
CCOc1cc2c(cc1OCC)-n1cccc1C(c1ccccc1OC)NC2 (configuration not stated) | inactive
C=CCn1c(O)c(C(C)=NCc2cc(OC)cc(OC)c2)c(=O)[nH]c1=O | inconclusive [activator, full curve]
C[C@H]1O[C@@H](OC2CC[C@]3(C=O)[C@H]4CC[C@]5(C)[C@@H](C6=CC(=O)OC6)CC[C@]5(O)[C@@H]4CC[C@]3(O)C2)CC2OC(C)(C)OC21 (some centres not stated) | inconclusive [activator, full curve, poor fit]
O=C(Oc1cccc2cccnc12)c1ccccc1 | inconclusive [activator, single point]
O=C(Oc1c(Br)cc(Br)c2cccnc12)N1CCCCC1 | inconclusive [activator, partial curve]
O=c1[nH]cnc2[nH]ncc12 | inconclusive [activator, full curve, poor fit]
CC12CN3C(O)C(C)(C1)CC(C)(C2)C3O (configuration not stated) | inconclusive [activator, single point]
CCC(=O)Nc1nc2ccccc2n1CCN(C)C | inconclusive [activator, partial curve, poor fit]
CCN(CC)c1ccc(N=Cc2c(O)n(CCc3ccc(OC)c(OC)c3)c(=O)[nH]c2=O)cc1 | inconclusive [activator, partial curve]
CCN(CC)C1=NC(=[N+](CC)CC)c2ccccc21 | inconclusive [activator, partial curve, poor fit]
CN(C)C(=O)Oc1ccc(OCc2cccc[n+]2C)cc1 | inconclusive [activator, single point]
COC(=O)C1=C(c2cccc(OCc3ccccc3)c2)C[C@@H]2CC[C@H]1N2C(=O)NC1CCN(Cc2ccccc2)CC1 | inactive
CCC1(Oc2ccccc2)C(=O)NC(=O)NC1=O | inactive
Cc1ccc(Cn2cc(C=O)c(-c3ccc(C)cc3)n2)cc1 | inconclusive [activator, single point]
OC(c1ccccc1)(c1ccccc1)C1CN2CCC1CC2 (configuration not stated) | inactive
S=C1NC2(CCCCC2)NC12CCCCC2 | inactive
CC1CCC(NCCc2ccc3c(c2)OCO3)CC1 (configuration not stated) | inconclusive [activator, full curve, poor fit]
O=C1NC(=O)C(=Cc2ccc(-c3ccc(F)cc3O)o2)C(=O)N1 | inconclusive [activator, single point]
O=C(c1ccccc1)c1cn(CC(=O)N2CCCc3ccccc32)c2ccccc12 | inactive
CN1CCCC1C(O)(c1ccccc1)c1ccccc1 (configuration not stated) | inconclusive [activator, partial curve, poor fit]

Compound | Potency
O=C1/C(=C\c2ccc(Cl)cc2Cl)N2CCC1CC2 | inactive
N[C@H]1C[C@H]1c1ccccc1 | inactive
O=C(CNC(=O)OCc1ccccc1)Nc1ccc(Br)cc1C(=O)c1ccccc1Cl | inactive
CCOP(=O)(OCC)C(NC(=O)C(Cl)Cl)C(Cl)(Cl)Cl (configuration not stated) | inconclusive [activator, partial curve]
Nc1ccc(N2CCN(Cc3ccccc3Cl)CC2)c(Cl)c1 | active: 20.6 µM
C[C@H]1O[C@H]1P(=O)(O)O | inconclusive [activator, full curve, poor fit]
Cc1[nH]c2ccc(OC(F)(F)F)cc2c1CCNCc1ccc(Cl)cc1 | inconclusive [activator, single point]
C[C@@H]1C[C@@H]2O[C@H]2/C=C\C=C\C(=O)Cc2c(Cl)c(O)cc(O)c2C(=O)O1 | active: 9.2 µM
O=C(CCl)Nc1sccc1C(=O)c1ccccc1 | inconclusive [activator, single point]
CC12Cc3cnoc3C=C1CCC1C2CCC2(C)C1CCC2(C)O (configuration not stated) | inconclusive [activator, single point]
C[C@H](CCC(=O)O)[C@H]1CC[C@H]2[C@@H]3CC[C@@H]4C[C@H](O)CC[C@]4(C)[C@H]3CC[C@]12C | inconclusive [activator, single point]
CCOc1cc2c(cc1OCC)-n1cccc1C(c1c(O)cccc1OC)NC2 (configuration not stated) | inconclusive [activator, partial curve, poor fit]
CN1CCN(S(=O)(=O)c2cnc(Cl)c(Br)c2)CC1 | inconclusive [activator, single point]
CC(=O)Nc1ccc(N=Cc2c(O)n(Cc3ccco3)c(=O)[nH]c2=O)cc1 | inconclusive [activator, partial curve, poor fit]
Nc1c(C(=O)OCC2CCCO2)c2nc3ccccc3nc2n1Cc1cccs1 (configuration not stated) | inconclusive [activator, single point]
CCC(C)N1C(=O)/C(=C\c2cnc(N(C)C)nc2)C(=O)NC1=S (configuration not stated) | inconclusive [activator, single point]
CCCCn1c(=O)c(C(=O)Nc2cnccn2)c(O)c2ccccc21 | inconclusive [activator, partial curve, poor fit]
CCOC(=O)c1cnc(SCc2ccc(Cl)c(Cl)c2)nc1N1CC1 | active: 13 µM
CCN(CCCl)Cc1ccccc1Br | inconclusive [activator, full curve, poor fit]
CCN(CC)c1ccc(N=Cc2c(O)n(Cc3ccco3)c(=O)[nH]c2=O)cc1 | active: 25.9 µM
CCc1ccc2nc(N3CCC(C(=O)N4CCC5(CC4)OCCO5)CC3)sc2c1 | inconclusive [activator, partial curve, poor fit]

From PubChem BioAssay AID624296 (National Center for Advancing Translational Sciences (NCATS), 2012)
